Data published in paper PMC10320511.
Results are given in words; binding and its absence hold for the method and conditions named. Binding seen in cells or lysates may run through a third protein. Some entries that bind do so weakly or less than the wild type. Tags and fused reporters may be left off the sequences shown.

T1: FRQ E200A, E202A, D207A, V5H6-tagged (Neurospora crassa) (UniProt P19970)
T1 sequence: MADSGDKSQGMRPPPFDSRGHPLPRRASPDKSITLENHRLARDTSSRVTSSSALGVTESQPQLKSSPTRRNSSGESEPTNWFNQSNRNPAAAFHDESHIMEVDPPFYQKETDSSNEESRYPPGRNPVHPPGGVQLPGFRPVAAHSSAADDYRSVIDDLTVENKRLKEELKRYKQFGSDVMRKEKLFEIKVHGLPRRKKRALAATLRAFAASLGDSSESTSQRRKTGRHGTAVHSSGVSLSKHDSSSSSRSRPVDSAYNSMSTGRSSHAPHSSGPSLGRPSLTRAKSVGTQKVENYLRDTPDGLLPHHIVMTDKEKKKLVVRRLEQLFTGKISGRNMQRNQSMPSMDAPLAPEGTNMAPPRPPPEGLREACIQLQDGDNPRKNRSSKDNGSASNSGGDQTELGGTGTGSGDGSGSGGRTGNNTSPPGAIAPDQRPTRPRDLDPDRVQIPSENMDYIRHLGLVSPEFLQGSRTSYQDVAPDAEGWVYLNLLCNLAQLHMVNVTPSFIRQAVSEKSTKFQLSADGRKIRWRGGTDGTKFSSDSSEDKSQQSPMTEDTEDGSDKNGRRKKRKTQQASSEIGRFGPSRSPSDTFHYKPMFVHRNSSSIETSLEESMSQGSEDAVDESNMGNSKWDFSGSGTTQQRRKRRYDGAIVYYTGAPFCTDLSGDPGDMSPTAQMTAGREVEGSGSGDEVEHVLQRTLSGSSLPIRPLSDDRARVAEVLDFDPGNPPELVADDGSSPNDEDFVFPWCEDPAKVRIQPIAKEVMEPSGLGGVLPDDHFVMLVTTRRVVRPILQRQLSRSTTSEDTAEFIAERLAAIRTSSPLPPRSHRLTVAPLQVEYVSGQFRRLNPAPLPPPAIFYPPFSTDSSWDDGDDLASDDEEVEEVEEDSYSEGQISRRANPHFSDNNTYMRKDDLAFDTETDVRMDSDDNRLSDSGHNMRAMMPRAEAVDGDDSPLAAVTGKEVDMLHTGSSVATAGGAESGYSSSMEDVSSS

T2: FRQ Δ511–558, V5H6-tagged (Neurospora crassa) (UniProt P19970)
T2 sequence: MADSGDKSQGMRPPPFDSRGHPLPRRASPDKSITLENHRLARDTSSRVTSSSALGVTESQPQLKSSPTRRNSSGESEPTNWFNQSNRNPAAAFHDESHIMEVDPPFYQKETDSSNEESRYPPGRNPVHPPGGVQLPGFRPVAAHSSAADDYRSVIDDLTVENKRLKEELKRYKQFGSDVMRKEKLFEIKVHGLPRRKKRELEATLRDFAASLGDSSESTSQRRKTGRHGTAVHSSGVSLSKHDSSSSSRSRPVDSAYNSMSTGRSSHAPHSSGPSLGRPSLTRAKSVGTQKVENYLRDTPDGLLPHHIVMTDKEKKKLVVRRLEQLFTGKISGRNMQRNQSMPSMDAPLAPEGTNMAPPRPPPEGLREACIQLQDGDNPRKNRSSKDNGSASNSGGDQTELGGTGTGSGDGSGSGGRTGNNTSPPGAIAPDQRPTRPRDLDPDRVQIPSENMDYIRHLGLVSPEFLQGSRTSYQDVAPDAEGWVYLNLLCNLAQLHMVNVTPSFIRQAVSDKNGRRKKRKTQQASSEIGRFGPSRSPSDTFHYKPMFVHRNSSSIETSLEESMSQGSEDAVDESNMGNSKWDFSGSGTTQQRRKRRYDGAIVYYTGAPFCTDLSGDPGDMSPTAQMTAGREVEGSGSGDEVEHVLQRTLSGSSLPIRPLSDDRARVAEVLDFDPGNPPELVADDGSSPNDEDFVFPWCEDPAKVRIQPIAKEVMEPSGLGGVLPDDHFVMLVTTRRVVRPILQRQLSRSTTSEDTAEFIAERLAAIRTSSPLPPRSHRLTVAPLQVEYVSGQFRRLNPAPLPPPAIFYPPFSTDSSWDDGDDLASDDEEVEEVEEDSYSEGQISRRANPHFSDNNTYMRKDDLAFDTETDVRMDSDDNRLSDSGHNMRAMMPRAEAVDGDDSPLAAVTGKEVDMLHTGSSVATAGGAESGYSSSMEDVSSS


Columns and labels:
[1] = biological target: T1, FRQ E200A, E202A, D207A, V5H6-tagged (Neurospora crassa); assay: co-IP; V5H6-tagged FRQ (wild type or mutant) pulled down with V5 agarose from Neurospora lysate (cultures in the light, 25 °C); 50 mM Hepes pH 7.4, 137 mM NaCl, 10% glycerol, 0.4% NP-40; 4 °C, 2 h; Western blot with FRQ, FRH, WC-1 and WC-2 antibodies
[2] = biological target: T2, FRQ Δ511–558, V5H6-tagged (Neurospora crassa); assay: as above

binding [1] | binding [2] | Binder
binds |  | FRQ-interacting RNA helicase (FRH) (protein, UniProt Q1K502 1-1106) MDDLFEVFEEQPRAQKKRKASPDVEMADGAAAAAPVANAAAAVTHPQAQAAPAPQKDNIDNNDNNNNNTTTSAVQPTIPNGDAAAAADDVQSPQSPHGLGDNKRRKKTDEAEPIMTDAFQTAESREVTGAQGFAPTEGESIVLSHNIQHQVALPPDLDYEYIPLSEHKPPAEPARTYSFKLDPFQALSVASIEREESVLVSAHTSAGKTVVAEYAIAQCLKKNQRVIYTSPIKALSNQKYRDFQAEFGDVGLMTGDVTINPTASCLVMTTEILRSMLYRGSEIMREVAWVVFDEIHYMRDKIRGVVWEETIILLPDKVRYVFLSATIPNAFQFAEWIAKIHRQACHVVYTDFRPTPLQNYFFPAGGKGILLIVDEKGNFKENNFNQAMAMIEEKKGTDSNDWSAKQKGKGKNKKTNKGGEAADEKADIAKIIKMILKKNFQPVIVFNFSKRECEQMALASSSMKFNAPDEENMVNKVFENALASLSEDDKNLPQISNILPLLRKGIGVHHSGLLPILKETIEILFQEGLIKVLFATETFSIGLNMPARTVVFTQVTKWDGQQRRPLTSSEYIQMAGRAGRRGLDDRGIVIMMVDDKLEPETARAIVVGNQDKLNSAFHLGYNMVLNLLRIEAISPEYMLERCFFQFQNAASVPQLERELISLQQERDAIIIPDESIVKDYYGVRQQLEEYNKDMVFVIQHPQNCLGFFQEGRLIHIKSPSGVDYGWGVLIKHIQRQTPKNGQPPYPEQESYVLDVLLKVSGDFNPKTRGEGPMPEGIMPAGKDSKNARWEVVPCLLNCLRALGQLRVFLPKRLESADEKDGVGKAVDEISRRFPDGIPILDPMENMGINDDSFKKLLRKIEVLESRLVANPLHNSPLLVELWNQYSLKMQLGEQIKEKKKAIARAHSVAQLDELKSRKRVLRRLGFINDAEVVQMKARVACEISSTEGHELLLAELLFNRFFNELSPEICACILSCFIFDEKIETQALKEELAKPFREIQAQARIIAKVSAESKLDVNEDEYVQSLKWQLMETVLAWAQGRPFSEICKMTNVYEGSLIRLFRRLEELLRQMAEAARVMGSEELKDKFELSLSKIRRDIVSFNSLYL
 | no binding | White Collar-2 (WC-2) (protein, UniProt P78714 1-530) MSHGQPPPGSSMYGFGAMGMGSGMGSGMGSGMGTGMGTGMGTGMSASQMTSDPQDMMSLLDTSVFPGFDGMSMSLDVGDSMSNPFTPVSVPPPLPAGNAGPSHVGVCGGHGAPDQLFSPDDLIATSMSSAGPMIATPTTTTSGPSGGPSSGGGSTLTEFTKRRNWPAKVVEELQDWEHILDANGRIKHVSPSVEPLTGYKPPEIIDLFLRDLIHPDDVGVFTAELNEAIATGSQLRLFYRFRKKDGNWTIFETVGHAHIAAAKFAPNPQNQSPFCQAVFMMARPYPTKNAGLLDSFLEHKIENERLKRRIAELRREEQEEQEESHRTWRMSQEGRSDVTPSDDTATQMGMTPFYIPMNAQADVMMPPPSQPASSLNIALTRENLEGIAGSRPDSIREKMLRYEGNHADTIEMLTGLKYQEGERSHGITTGNASPTLIKGDAGIAIPLDRDPRTGEKKKKIKVAEEYVCTDCGTLDSPEWRKGPSGPKTLCNACGLRWAKKEKKKNANNNNNGGGIGGHNDIHTPMGDHMG
